# According to the supplement of paper PMC12217912:
# Some of the results follow. Sequences were assembled here from the parent chain. Inactive controls read about 0.05.
# B1: TEV protease; numbered along this chain (parent)
# chain: MGESLFKGPRDYNPISSSICHLTNESDGHTTSLYGIGFGPFIITNKHLFRRNNGTLVVQSLHGVFKVKDTTTLQQHLVDGRDMIIIRMPKDFPPFPQKLKFREPQREERICLVTTNFQTKSMSSMVSDTSCTFPSGDGIFWKHWIQTKDGQCGSPLVSTRDGFIVGIHSASNFTNTNNYFTSVPKNFMELLTNQEAQQWVSGWRLNADSVLWGGHKVFMVKPEEPFQPVKEATQL
# Variants of: B1
# Assay: raw area under fraction-flipped curve 0-4 h after induction (AUC4h, not background-subtracted), DNA-recorder readout of cleavage of the substrate (dimensionless); higher = more cleavage of the substrate by the protease variant
# Details: temperature: 34 °C; time window: 0-4 h after rhamnose induction
# Method: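 In vivo DNA recorder in E. coli TOP10(DE3) ΔrhaA at 34 °C. Each TEVp single-site mutant (parent TEVp 0) is paired with a single-site variant of the 7-mer TEVs (canonical ENLYFQ|S). The substrate sits between flexible linkers in a Bxb1-sfGFP-TEVs-SsrA fusion, so cleavage stabilises Bxb1 and speeds flipping of a recombination array, read by NGS. The value is the raw area under the fraction-flipped curve over 0-4 h after rhamnose induction (AUC4h), with ≥20 reads per time point. It is not background-subtracted; inactive controls average about 0.047.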
# 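Further: Bxb1 expression induced with 0.2% (w/v) L-rhamnose at OD600 near 0.5, cultures sampled hourly, flipped fraction per protease–substrate barcode pair counted by paired-end Illumina sequencing.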
variant,measurement,value
MGESLFKGPRDYNPISSSICHLTNESDGHTTSLYGIGFGPFIITNKHLFRRNNGTLVVQSLHGVFKVKDTTTLGQHLVDGRDMIIIRMPKDFPPFPQKLKFREPQREERICLVTTNFQTKSMSSMVSDTSCTFPSGDGIFWKHWIQTKDGQCGSPLVSTRDGFIVGIHSASNFTNTNNYFTSVPKNFMELLTNQEAQQWVSGWRLNADSVLWGGHKVFMVKPEEPFQPVKEATQL [Q74G],area with substrate ENCYFQS,0.0644
same,area with substrate ENDYFQS,0.0651
same,area with substrate ENEYFQS,0.0589
same,area with substrate ENFYFQS,0.0564
same,area with substrate ENGYFQS,0.0715
same,area with substrate ENHYFQS,0.0457
same,area with substrate ENIYFQS,0.0819
same,area with substrate ENKYFQS,0.0564
same,area with substrate ENPYFQS,0.0819
same,area with substrate ENQYFQS,0.0636
same,area with substrate ENRYFQS,0.0579
same,area with substrate ENTYFQS,0.0357
same,area with substrate ENVYFQS,0.0897
same,area with substrate ENWYFQS,0.0053
same,area with substrate ENYYFQS,0.0593
MGESLFKGPRDYNPISSSICHLTNESDGHTTSLYGIGFGPFIITNKHLFRRNNGTLVVQSLHGVFKVKDTTTLQQHLVDGRDMIIIRMPKDFPPFPQKSKFREPQREERICLVTTNFQTKSMSSMVSDTSCTFPSGDGIFWKHWIQTKDGQCGSPLVSTRDGFIVGIHSASNFTNTNNYFTSVPKNFMELLTNQEAQQWVSGWRLNADSVLWGGHKVFMVKPEEPFQPVKEATQL [L99S],area with substrate ENCYFQS,0.0608
same,area with substrate ENFYFQS,0.0591
same,area with substrate ENGYFQS,0.0587
same,area with substrate ENHYFQS,0.0504
same,area with substrate ENPYFQS,0.0769
same,area with substrate ENQYFQS,0.0498
same,area with substrate ENRYFQS,0.0602
same,area with substrate ENSYFQS,0.0553
same,area with substrate ENTYFQS,0.0718
same,area with substrate ENVYFQS,0.0633
MGESLFKGPRDYNPISSSICHLTNESDGHTTSLYGIGFGPFIITNKHLFRRNNGTLVVQSLHGVFKVKDTTTLQQHLVLGRDMIIIRMPKDFPPFPQKLKFREPQREERICLVTTNFQTKSMSSMVSDTSCTFPSGDGIFWKHWIQTKDGQCGSPLVSTRDGFIVGIHSASNFTNTNNYFTSVPKNFMELLTNQEAQQWVSGWRLNADSVLWGGHKVFMVKPEEPFQPVKEATQL [D79L],area with substrate ENCYFQS,0.0663
same,area with substrate ENEYFQS,0.0624
same,area with substrate ENIYFQS,0.126
same,area with substrate ENKYFQS,0.0492
same,area with substrate ENMYFQS,0.0967
same,area with substrate ENQYFQS,0.06
same,area with substrate ENRYFQS,0.0454
same,area with substrate ENSYFQS,0.0652
same,area with substrate ENWYFQS,0.0433
same,area with substrate ENYYFQS,0.0561
MGESLFKGPRDYNPISSSICHLTNESDGHTTSLYGIGFGPFIITNKHLFRRNNGTLVVQSLHGVFKVKDTTTLQQHLVDGRDMIKIRMPKDFPPFPQKLKFREPQREERICLVTTNFQTKSMSSMVSDTSCTFPSGDGIFWKHWIQTKDGQCGSPLVSTRDGFIVGIHSASNFTNTNNYFTSVPKNFMELLTNQEAQQWVSGWRLNADSVLWGGHKVFMVKPEEPFQPVKEATQL [I85K],area with substrate ENCYFQS,0.0636
same,area with substrate ENDYFQS,0.0474
same,area with substrate ENEYFQS,0.0617
same,area with substrate ENFYFQS,0.0494
same,area with substrate ENGYFQS,0.0556
same,area with substrate ENHYFQS,0.0532
same,area with substrate ENKYFQS,0.0733
same,area with substrate ENMYFQS,0.0896
same,area with substrate ENQYFQS,0.0612
same,area with substrate ENRYFQS,0.0644
same,area with substrate ENSYFQS,0.0539
same,area with substrate ENVYFQS,0.0584
same,area with substrate ENYYFQS,0.0472
MGESLFKGPRDYNPISSSICHLTNESDGHTTSLYGIGFGPFIITNKHLFRRNNGTLVVQSLHGVFKVFDTTTLQQHLVDGRDMIIIRMPKDFPPFPQKLKFREPQREERICLVTTNFQTKSMSSMVSDTSCTFPSGDGIFWKHWIQTKDGQCGSPLVSTRDGFIVGIHSASNFTNTNNYFTSVPKNFMELLTNQEAQQWVSGWRLNADSVLWGGHKVFMVKPEEPFQPVKEATQL [K68F],area with substrate ENCYFQS,0.0525
same,area with substrate ENDYFQS,0.0677
same,area with substrate ENFYFQS,0.0753
same,area with substrate ENNYFQS,0.0694
same,area with substrate ENPYFQS,0.0639
same,area with substrate ENQYFQS,0.0481
same,area with substrate ENSYFQS,0.0594
same,area with substrate ENTYFQS,0.0715
same,area with substrate ENVYFQS,0.0726
MGESLFKGPRDYNPISSSICHLTNESDGHTTSLYGIGFGPFIITNKHLFRRNNGTLVVQSLHGVFKVKDTTTLQQHLVDGRDMIIIRMPKDFPPRPQKLKFREPQREERICLVTTNFQTKSMSSMVSDTSCTFPSGDGIFWKHWIQTKDGQCGSPLVSTRDGFIVGIHSASNFTNTNNYFTSVPKNFMELLTNQEAQQWVSGWRLNADSVLWGGHKVFMVKPEEPFQPVKEATQL [F95R],area with substrate ENCYFQS,0.0434
same,area with substrate ENDYFQS,0.0549
same,area with substrate ENEYFQS,0.0698
same,area with substrate ENFYFQS,0.0416
same,area with substrate ENGYFQS,0.0519
same,area with substrate ENHYFQS,0.0497
same,area with substrate ENIYFQS,0.0656
same,area with substrate ENKYFQS,0.0452
same,area with substrate ENNYFQS,0.0677
same,area with substrate ENPYFQS,0.0533
same,area with substrate ENQYFQS,0.0554
same,area with substrate ENTYFQS,0.0556
MGESLFKGPRDYNPISSSICHLTNESDGHTTSLYGIGFGPFIITNKHLFRRNNGTLVVQSLHGVEKVKDTTTLQQHLVDGRDMIIIRMPKDFPPFPQKLKFREPQREERICLVTTNFQTKSMSSMVSDTSCTFPSGDGIFWKHWIQTKDGQCGSPLVSTRDGFIVGIHSASNFTNTNNYFTSVPKNFMELLTNQEAQQWVSGWRLNADSVLWGGHKVFMVKPEEPFQPVKEATQL [F65E],area with substrate ENCYFQS,0.0648
same,area with substrate ENDYFQS,0.0561
same,area with substrate ENFYFQS,0.0658
same,area with substrate ENGYFQS,0.0664
same,area with substrate ENHYFQS,0.0331
same,area with substrate ENMYFQS,0.0757
same,area with substrate ENPYFQS,0.0566
same,area with substrate ENQYFQS,0.0635
same,area with substrate ENRYFQS,0.0414
same,area with substrate ENSYFQS,0.0629
same,area with substrate ENVYFQS,0.0768
same,area with substrate ENWYFQS,0.0659
same,area with substrate ENYYFQS,0.0422
MGESLFKGPRDYNPISSSICHLTNESDGHTTSLYGIGFGPFIITNKHLFRRNNGTLVVQSLHGVFKVKDTTTLQQHLVDGRDMIIIRMPKDFPPFPQKLKFRYPQREERICLVTTNFQTKSMSSMVSDTSCTFPSGDGIFWKHWIQTKDGQCGSPLVSTRDGFIVGIHSASNFTNTNNYFTSVPKNFMELLTNQEAQQWVSGWRLNADSVLWGGHKVFMVKPEEPFQPVKEATQL [E103Y],area with substrate ENCYFQS,0.0626
same,area with substrate ENQYFQS,0.0745
same,area with substrate ENSYFQS,0.061
same,area with substrate ENTYFQS,0.0641
MGESLFKGPRDYNPISSSICHLTNESDGHTTSLYGIGFGPFIITNKHLFRRNNGTLVVQSLHGVFKVKDTTTLQQHLVDGRDMIIIRMPKDFPPFPQKLKFREPQREERICLNTTNFQTKSMSSMVSDTSCTFPSGDGIFWKHWIQTKDGQCGSPLVSTRDGFIVGIHSASNFTNTNNYFTSVPKNFMELLTNQEAQQWVSGWRLNADSVLWGGHKVFMVKPEEPFQPVKEATQL [V113N],area with substrate ENCYFQS,0.0523
same,area with substrate ENDYFQS,0.0552
same,area with substrate ENEYFQS,0.061
same,area with substrate ENFYFQS,0.0519
same,area with substrate ENGYFQS,0.0568
same,area with substrate ENHYFQS,0.0491
same,area with substrate ENNYFQS,0.0553
same,area with substrate ENQYFQS,0.056
same,area with substrate ENRYFQS,0.0515
same,area with substrate ENSYFQS,0.0812
same,area with substrate ENVYFQS,0.0978
same,area with substrate ENWYFQS,0.163
MGESLFKGPRDYNPISSSICHLTNESDGHTTSLYGIGFGPFIITNKHLFRRNNGTLVVQSLHGVFKVKDTTTLQQHLVDGRDMIIIRMPKDFPPFPQKLKFREPQREERICLCTTNFQTKSMSSMVSDTSCTFPSGDGIFWKHWIQTKDGQCGSPLVSTRDGFIVGIHSASNFTNTNNYFTSVPKNFMELLTNQEAQQWVSGWRLNADSVLWGGHKVFMVKPEEPFQPVKEATQL [V113C],area with substrate ENCYFQS,0.0813
same,area with substrate ENDYFQS,0.0695
same,area with substrate ENEYFQS,0.0649
same,area with substrate ENFYFQS,0.0302
same,area with substrate ENGYFQS,0.0628
same,area with substrate ENHYFQS,0.0626
same,area with substrate ENPYFQS,0.0583
same,area with substrate ENQYFQS,0.0573
same,area with substrate ENRYFQS,0.0655
same,area with substrate ENSYFQS,0.0586
same,area with substrate ENTYFQS,0.0712
same,area with substrate ENVYFQS,0.0494
same,area with substrate ENYYFQS,0.0568
